# ± gives the standard deviation of the averaged measurements. The list shows a part of the results.
# Tested on: PfAP2-LT AP2 domain (GST-tagged)
# Assay: gcPBM binding intensity (ln(normalized median fluorescence intensity)); higher = stronger DNA binding
# Procedure, shortened: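 Plasmodium falciparum DNA-binding domains carrying a GST tag were expressed in E. coli and applied for 1 h, at about 25 μg on average, to an Agilent 4 × 180k array. The array held primer-extended double-stranded 36-bp intergenic genomic probes together with negative controls, and binding took place in 1× PBS with 1% milk, 0.2 mg/ml BSA, 0.5% salmon testes DNA and 0.03% Triton X-100. An Alexa488 anti-GST antibody detected bound protein, and the array was scanned at 488 nm. Binding intensity is taken as the highest Masliner-normalised natural-log median intensity across replicate spots of either probe orientation.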
row,Sequence,gcPBM binding intensity (ln)
1,TATATATATATTTATACACACATTAGTGTAGACATG [CACACA_site8964],9.04 ± 0.26
2,TCCTTATAAATATATATATAATATATATATATATAT [CACACA_negctrl_site293],8.84 ± 0.18
3,TTGTTCTAATATATTGCACACGTAAAAATATAGGTA [CACACA_site8195],8.95 ± 0.41
4,TTGGTTATACAACACATGCACACGTAAATAAATATT [CACACA_site3841],9.1 ± 0.35
5,AAGTATGCATTATATACACACATACATTTATATATT [CACACA_site4242],9.09 ± 0.35
6,ATTATGTTAAAAAGGCGTACATGTTATAAGGTCCTA [XGTACX_site344],8.8 ± 0.31
7,TATATATAAAGAGAAACATGCAAAATGTGAATATTC [TGCATGCA_site377],9.05 ± 0.28
8,ATATATCATAATAAAAGTACTTATATATTTTATATA [XGTACX_site560],8.47 ± 0.42
9,AAAATAAATAAATATACACACCATATATATATTTTT [CACACA_site5573],8.89 ± 0.4
10,TACAAAAAAAGATGATGTACAATGAAAAATAAGAAA [XGTACX_site5840],8.82 ± 0.57
11,ATAAATAATTGTAGTTGTACATGATATTTTTATTAC [XGTACX_site550],8.75 ± 0.27
12,AAAAAAAAAAAAAACACACACACAAATACAAATACA [CACACA_site414],9.9 ± 0.36
13,AAATGGACCTAATTATCACACATTATACTCGTTTTC [CACACA_site5996],9.03 ± 0.41
14,TATAAGTTTATATATACACACATATATATATATATA [CACACA_site3274],9.65 ± 0.34
15,TTGTTAAAATTATTAAGTTAAATATCGATTTGTAAA [XGTACX_negctrl_site429],8.19 ± 0.45
16,ATATTTATAACTTGTACACACAAATATGCATATATA [CACACA_site7583],9.18 ± 0.39
17,TTATTATTCCCTCATTTTGTTACCATTATTTCAATT [CACACA_negctrl_site1023],8.88 ± 0.54
18,TTAAAATTTTTTTTTTTTTTTTTTTTTTTTTTTTTC [CACACA_negctrl_site957],8.13 ± 0.61
19,AAAATAAAAAGAAAAAATAAAAAGAAAAAATAAAAA [CACACA_negctrl_site120],8.46 ± 0.61
20,AGTGAAAAAAAATTTACACACATAAAATATAAACGA [CACACA_site3724],9.21 ± 0.55
21,AAATAAAATACATATAAACACACATATAAACCAACA [CACACA_site8789],9.44 ± 0.3
22,AAAAAAAATATAAGTGGTACTCACATAAAGACATAT [XGTACX_site3709],9.07 ± 0.41

row,Sequence,gcPBM binding intensity (ln)
1,TAATACTTTTAATCTACACACGCTGAGACATGCTTT [CACACA_site1484],9.06 ± 0.49
2,TTTTTAGTTCATTAAACACACAAAAAAAAAAATAAA [CACACA_site6035],8.45 ± 0.41
3,TTTTTTATTCTTTTTGCACACAGGAAATTTACAGAT [CACACA_site1090],9.21 ± 0.42
4,TTATATAATCCTTTCAAACACACAAAATATAATTAA [CACACA_site1830],8.62 ± 0.42
5,TGCCCTTTGGTTATAACACACATGCACACGTAAATA [CACACA_site7750],9.4 ± 0.23
6,AATTAACCGTGACACACACACATATAAATATAAATA [CACACA_site7790],9.54 ± 0.56
7,GGGAATATATAAGATACACACACAAATTAAATATAA [CACACA_site8898],9.44 ± 0.39
8,TATATATATATATATACACACACACCCACCAAAGCG [CACACA_site7904],10.02 ± 0.021
9,ATGAAATATGCACAGTGTACTTTTATGAGGAACATA [XGTACX_site426],8.84 ± 0.44
10,TTTTTAATACAAAAAAAATAATATGTTATATTTCAA [CACACA_negctrl_site35],8.18 ± 0.45
11,TACAATTTATGACACACACACAATAATACCTATATA [CACACA_site6704],9.61 ± 0.27
12,AAAAAAAAAAAACACACACACACACTAGTACATACA [CACACA_site4551],10.2 ± 0.3
13,TATATATATATATGTGCACACATAAAGATATTATTT [CACACA_site3734],9.77 ± 0.3
14,AATAAAATAATAGGCACACATATATATATATATTAT [CACACA_site273],9.2 ± 0.37
15,ATATATCTACATATATGTACATATATGTATATGTAT [XGTACX_site5432],9.18 ± 0.3
16,ATATCCTACTTCTAGTGTACATATATGGACTGATGA [XGTACX_site3683],8.88 ± 0.46
17,TTTTGTAAAAGGTATATATATATATATATATATATA [GTGCAC_negctrl_site734],9.79 ± 0.22
18,AATAAAAAAATAAAAAAAAAAAAAAATAAAAAAAAA [GTGCAC_negctrl_site12],8.36 ± 0.45
19,CGTATTTTAATATTTACACACTTATTTTTTATATAA [CACACA_site125],8.78 ± 0.52
20,TATAGCATATTTCACACACACATAATGAATATTATA [CACACA_site3545],9.4 ± 0.28
21,TTTATATAGAAAAATTGTACGAATTACTTTTTTATA [XGTACX_site6843],8.36 ± 0.41
22,TATAGTAAAATTAGGGTGCTTTTGTAACAAAAAAAA,8.61 ± 0.52
